Measured values: PubChem BioAssay AID1347073 (National Center for Advancing Translational Sciences (NCATS), 2019)
About 200 (0.44%) of roughly 45,000 compounds were called active. Not shown: some 7% with an inconclusive outcome. Calls come from the whole dose curve; as a rule, active = well fitted activation curve with a large enough effect; inconclusive = small, poorly fitted or top-dose-only effect; inactive = no such curve, though single readings can be large or run the other way. The list shows a part of the results.

Assay: qHTS of TDP-43 Inhibitors: NCGC Sytravon Library Screen; note: 0% is about no effect; nearly all actives have a fitted effect of over 55% in size
Conditions: yeast TDP-43 toxicity rescue, BacTiter-Glo growth, 24 h; series mostly up to 46.1 µM; growth rescue (activation): at the top concentration
Outline: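 TDP-43-expressing yeast, pregrown in raffinose, seeded at OD600 0.02 in galactose medium with compound for 24 hr at 30 deg C. Growth read by BacTiter-Glo luminescence, so rescue of toxicity appears as activation.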

| Compound | growth rescue (activation) |
| --- | --- |
| C=CCNC(=O)COC(=O)/C=C/c1cccs1 | inactive: -13.6% |
| COc1ccc(Nc2cc(C)c3ccccc3n2)cc1 | inactive: 12.7% |
| O=C(NC(=S)NC12CC3CC(CC(C3)C1)C2)c1ccc(F)cc1 | inactive: -4.37% |
| CCC(=O)c1ccc(-c2ccccc2)cc1 | inactive: 30.8% |
| O=C(COc1ccc([N+](=O)[O-])cc1)Nc1ccc(N2CCCC2)cc1 | inactive: 4.68% |
| CS(=O)(=O)Cc1ccc(C(=O)NC2CCN(Cc3ccccc3)C2)cc1 (stereo not given) | inactive: 13.1% |
| Cc1ccc(C)c(N2CCN(C(=O)c3cccn4c(=O)c5sccc5nc34)CC2)c1 | inactive: 20.1% |
| O=C1CCC(=O)N1c1ccc(S(=O)(=O)Nc2cccc(Br)c2)cc1 | inactive: 25.9% |
| CCOc1ccc(NC(=S)N2C3CCCC2CC(NC(=O)C2CC2)C3)cc1 (stereo not given) | inactive: -3.85% |
| Cc1ccc2nc(-c3ccccc3F)c(Nc3ccc(Cl)cc3)n2c1 | inactive: 6.63% |
| c1cnc2c(OCc3cn4cccnc4n3)cccc2c1 | inactive: 4.3% |
| Cc1cc(C(=O)COC(=O)c2cnccn2)c(C)n1-c1ccc(Br)cc1 | inactive: 3.41% |
| O=C(NC(=S)Nc1ccccc1N1CCCC1)c1ccccc1[N+](=O)[O-] | inactive: 27.9% |
| O=C(O)CC(C(=O)O)c1cn(Cc2ccccc2)c2ccccc12 (stereo not given) | inactive: 19.1% |
| O=C(O)c1cccc(NC(=S)NC(=O)c2ccc(-c3ccccc3)cc2)c1 | inactive: -1.35% |
| O=C(NCc1nnc2n1CCCCC2)c1ccc(Cl)cc1Cl | inactive: 10.1% |
| CC/C(C)=N\NC(=O)CNC(=O)c1ccc(Cl)cc1Cl | inactive: 7.13% |
| Cn1c(CSCc2ccc(Cl)cc2)n[nH]c1=S | inactive: -4.26% |
| O=C(c1cccc2ccccc12)C1CCCN(C(=O)CCCn2cncn2)C1 (stereo not given) | inactive: 2.48% |
| COc1cccc(CN(C)C(=O)c2ccc(COc3ccc(Cl)cc3)cc2)c1OC | inactive: 29.4% |
| CCCOc1ccccc1C1NC(=O)NC(C)=C1C(=O)OCCOCC (stereo not given) | inactive: -7.61% |
| CCC(C)(C)C(=O)Nc1cc([N+](=O)[O-])ccc1Cl | inactive: 3.99% |
| CCCn1c2ccccc2c2nnc(SCc3[nH]c(=O)[nH]c3C(=O)CCCCC(=O)OCC)nc21 | inactive: 28.3% |
| CN1CCc2nc(SC(C(=O)O)c3ccccc3)c(C#N)c(-c3cccs3)c2C1 (stereo not given) | inactive: -8.27% |
| N#Cc1cccc(S(=O)(=O)NCC(=O)NCCCc2ccccc2)c1 | inactive: 7.28% |
| COc1ccc(N2CC(C(=O)NC3CCSC3=O)CC2=O)cc1 (stereo not given) | inactive: 14.6% |
| CC(=O)c1cn(-c2ccc(Cl)cc2)c(=O)n(Cc2ccc(Br)cc2)c1=O | inactive: -13.5% |
| COc1ccc(C)cc1NC(=O)c1ccc2c(SCC(=O)O)c3c(nc2c1)CCCC3 | inactive: -5.03% |
| COc1cccc(NC(=O)CN(C)C(=O)Cc2ccc(Cl)cc2Cl)c1 | inactive: 5.55% |
| Cc1cccc(C(=O)N[C@H](C(=O)OCc2cc(=O)n3c(n2)sc2ccccc23)C(C)C)c1 | inactive: -9.06% |
